Among the data in PMC7819943, “Rice protein-binding microarrays: a tool to detect cis-acting elements near promoter regions in rice” are binding signal values, retold here.

The list shows a part of the results.

The target of this test is T1, OsWOX13 (Oryza sativa, UniProt Q5QMM3 1-267).
T1 sequence: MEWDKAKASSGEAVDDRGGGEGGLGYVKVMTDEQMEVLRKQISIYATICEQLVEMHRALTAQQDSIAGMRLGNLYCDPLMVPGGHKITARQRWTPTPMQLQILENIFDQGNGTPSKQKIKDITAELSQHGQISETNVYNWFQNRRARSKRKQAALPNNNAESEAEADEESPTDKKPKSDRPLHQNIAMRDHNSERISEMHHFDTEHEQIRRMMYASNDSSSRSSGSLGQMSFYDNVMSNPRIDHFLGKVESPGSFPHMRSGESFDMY
Kind of test: protein-binding microarray (RPBM); PBS, 2% BSA, 51.3 ng/ul salmon testes DNA, 50 uM zinc acetate, 200 nM TF, 25 C, 1 h; high values mean tight binding. The conditions noted are these: protein: recombinant; tags: N-terminal polyhistidine and DsRed monomer fusion (pET32a); label: CyDye5-dUTP incorporated in the synthesized complementary strand; 3' TTTTT single-stranded linker to array surface; dsDNA, one strand shown. In outline: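 In PBS with 2% BSA, salmon testes DNA and 50 µM zinc acetate, 200 nM protein was incubated on a custom Agilent array at 25 °C for 1 h and then washed off. The array had been made double-stranded by primer extension with Cy5-dUTP and blocked with 2% BSA. The proteins were transcription factors fused N-terminally to polyhistidine and DsRed, expressed in E. coli BL21-CodonPlus and purified on Ni–NTA. The binding signal is per-feature fluorescence intensity (arbitrary units) from an Axon 4000B scanner.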
In the case of “GACATAGACAGTAGTGTTAATTGTAAGATGTAGTTTAGTTCGGAGTCACCTAGTGCAG”, the binding signal is 6290 ± 781 fluorescence intensity (a.u.). As for “GATTACTGTTTAACCAATGATTTCACTTTGGATTACCATACGGAGTCACCTAGTGCAG”, the figure is 5560 fluorescence intensity (a.u.); as for “TTATCAATTACATAGGGCTCAGGGTCTATTTATACCCGAGCGGAGTCACCTAGTGCAG”, 13200 fluorescence intensity (a.u.). The figure for “TAAAATTGAAAGTGTCAACAAAGTGAAAGGACCCGAGATGCGGAGTCACCTAGTGCAG” is 15800 fluorescence intensity (a.u.); for “CACTAATTTTATTTCCGAATAAGACAAATATTAAAGTGTTCGGAGTCACCTAGTGCAG” it is 13100 fluorescence intensity (a.u.). Turning to “CTAGATTAAAATCCATTGACACACATTCAAATATTTCCGGCGGAGTCACCTAGTGCAG”, the binding signal was 21600 fluorescence intensity (a.u.).

Regarding “ATTTTAATGGATTTCTGCAAACTTTTAGTAGTAGTAGTATCGGAGTCACCTAGTGCAG”, the binding signal is 4340 fluorescence intensity (a.u.). Take “GTGGCTAATTGCACGTGCAGTTTATCATCAAGTTTTACTTCGGAGTCACCTAGTGCAG”: the binding signal is 15200 fluorescence intensity (a.u.).

As to “TTCACTCTTCGCAATAATTGAATAGAAAGATAATGGGAAACGGAGTCACCTAGTGCAG”, the binding signal is 6300 fluorescence intensity (a.u.). As for “AAGATAGATTAGGGAAAACTTTTGAATATGTTCTAAAGATCGGAGTCACCTAGTGCAG”, the figure is 15400 fluorescence intensity (a.u.). As for “TCGGATTGGCCCAACGGATGATACTACCCAACTGTACGGACGGAGTCACCTAGTGCAG”, the binding signal was 6980 fluorescence intensity (a.u.). As for “TTCTAATCAAGCTTTCTGGTTAATTTCTCTATGAATTTAACGGAGTCACCTAGTGCAG”, the figure is 5250 fluorescence intensity (a.u.); as for “AAGATTGGGTATAAAATGATACATCTTAAACTGCAATGCACGGAGTCACCTAGTGCAG”, 11000 fluorescence intensity (a.u.). The figure for “GGGATTGAGGCAGAAATTATGCCGTTCTCCAGGGAGCAATCGGAGTCACCTAGTGCAG” is 9810 fluorescence intensity (a.u.).

Take “CCTTGACACAGGCAAGATTGATGCTACAGTATAAATACGGCGGAGTCACCTAGTGCAG”: the binding signal was 25700 fluorescence intensity (a.u.). Consider “CTGTCTTGACAAAATAGATTGAGCTAAACACTCTGGATAACGGAGTCACCTAGTGCAG”, for which the binding signal is 19400 fluorescence intensity (a.u.). As for “TCCTCAATTAATTGCTGATCCTAATGCAGAGTTTCAGGTGCGGAGTCACCTAGTGCAG”, the figure is 35500 fluorescence intensity (a.u.); as for “TCTCGTAATCACATCCATATGAACACATATAAACACTCGTCGGAGTCACCTAGTGCAG”, 4010 fluorescence intensity (a.u.); as for “GCTCAGAATATCATCTGATTAGCTGCCATCTAATCGATAACGGAGTCACCTAGTGCAG”, 3940 fluorescence intensity (a.u.). The figure for “AACCTTGCAATTGATTTGACCTCATCGTTCTTGTCCCCGTCGGAGTCACCTAGTGCAG” is 18100 fluorescence intensity (a.u.); for “TAAAATTCGACAGTAATTTAAACTCACTCACTAGAAAGAGCGGAGTCACCTAGTGCAG” it is 4260 fluorescence intensity (a.u.); for “CCACTGATAATTTAATTTGTCGATAATAAAATAGGTTTGACGGAGTCACCTAGTGCAG” it is 22000 fluorescence intensity (a.u.). On to “AGTATAACCACCGGGCCCCACGCGTCATCCTCCCGCGCGTCGGAGTCACCTAGTGCAG”, for which the binding signal is 4020 fluorescence intensity (a.u.). As for “ATATCTAATTAGTTGCTGAGAGCATATATAATGCGATTCTCGGAGTCACCTAGTGCAG”, the figure is 12900 fluorescence intensity (a.u.); as for “TTAACTGGAGTCGGTCAAATTGATCCATCCTTTGAACTTTCGGAGTCACCTAGTGCAG”, 3450 fluorescence intensity (a.u.); as for “GCTGATTGGCACAATGCCACAATGACAGGACCTGCCCGTCCGGAGTCACCTAGTGCAG”, 38000 fluorescence intensity (a.u.). As for “GTTCTAACTGAAACGATGATGACTGAGCAGTAGCAGACTACGGAGTCACCTAGTGCAG”, the figure is 7790 fluorescence intensity (a.u.). As for “GATAAATTTAGTGTTAAATCTGTAGTTTTGTAATAGTTTACGGAGTCACCTAGTGCAG”, the binding signal is 6120 fluorescence intensity (a.u.). The figure for “TGGAGTTGAAACATTTTGATTGGACTTTAACTGTAAGAGGCGGAGTCACCTAGTGCAG” is 12800 fluorescence intensity (a.u.); for “CTTCATCAATCATAAAATAATTAAACCTAACAGGCGATCTCGGAGTCACCTAGTGCAG” it is 35500 fluorescence intensity (a.u.). Regarding “TTATAAGTTAATTTTATGGATTAGCTCCTTACACCCTTAACGGAGTCACCTAGTGCAG”, the binding signal is 10000 fluorescence intensity (a.u.). Turning to “ATGTGACTGAAAATTTGTGTGTATATGACAGGTTGATGCGCGGAGTCACCTAGTGCAG”, the binding signal is 22800 fluorescence intensity (a.u.). As for “TTTTGATTAGAACTGTATGTCCAGCTTGTGATGTACCTAACGGAGTCACCTAGTGCAG”, the figure is 42100 fluorescence intensity (a.u.); as for “AAATTATATTAATTTCCACTGTGTAGCGCATCCTTATCGACGGAGTCACCTAGTGCAG”, 4130 fluorescence intensity (a.u.); as for “GGCTGGTGGAATTAATTATAGTATAATAAGGAAAAGCAGACGGAGTCACCTAGTGCAG”, 5510 fluorescence intensity (a.u.). For the sequence “TACTTGATGAAACATTCAAATAATATGATGTGCAACATTCCGGAGTCACCTAGTGCAG”, the binding signal is 5150 fluorescence intensity (a.u.). Consider “TCCACCGCGACATGTGATTGGAGGTAAGAGCATGTGAACCCGGAGTCACCTAGTGCAG”, for which the binding signal is 5650 fluorescence intensity (a.u.). The figure for “TTTTAATTACTTATTTAATCATATGCTAATAGCTCGTCCTCGGAGTCACCTAGTGCAG” is 39300 fluorescence intensity (a.u.); for “AACAAATTGGAGTAATCAATGGGCTATACTATTAAACTTGCGGAGTCACCTAGTGCAG” it is 15400 fluorescence intensity (a.u.); for “CATATAGATTACCAAATAAATTCTCTAACAAGAATAGGTGCGGAGTCACCTAGTGCAG” it is 13700 fluorescence intensity (a.u.).

On to “ATATAATATAATTATATCAATGCACAGCATATAGCTTATCCGGAGTCACCTAGTGCAG”, for which the binding signal was 11500 fluorescence intensity (a.u.). The figure for “TTAACTTTACACATTTTAATTGTTGGAGGCTTTCACACGGCGGAGTCACCTAGTGCAG” is 3320 fluorescence intensity (a.u.).
